Consider 167 variants from the RNAGym collection of RNA variant scans (doi:10.7554/elife.90254).

Read counts are not given, so values of variants with three or more changes are uncertain.

The chains are these.
B1: LINE1-mini (parent)
chain: GGCAGAGCUCAACACAGCGUGGCAAAGUGGCUGUGGCUAGACUGCC

The variants in this data set derive from B1. Description: self-cleavage, relative activity (ratio to wild type); higher = more cleavage; in vitro, sequencing; the parent is a self-cleaving ribozyme.
For the variant G5U G19C C23U, the self-cleavage was determined as 0.05.

Turning to G5U C10A C15G A26C U32A, the self-cleavage came to 0.01.

On to G5U C10A A26C, for which the self-cleavage turned out to be 0.01.

For the variant G5U G17A C18G U28A U34C C45A, the self-cleavage worked out at 0.04.

For the variant G5U C31U A41C, the self-cleavage was 0.03.

For G5U C10U C15A C37A, the self-cleavage was determined as 0.03.

With G5U C13G A16G G40U, the self-cleavage was 0.01.

In the case of G5U C13A G21C U32G G35U, the self-cleavage worked out at 0.01.

For the variant G5U C15G G29U C37A C42A, the self-cleavage was 0.01.

For the variant G5U C10A G22U A25G A26G C31A, the self-cleavage was 0.03.

For G5U C13U G19C, the self-cleavage is 0.46.

Regarding G5U G19A C37U C45U, the self-cleavage came out at 0.03.

Consider G5U C10A G21C U43C, for which the self-cleavage was found to be 0.01.

Take G5U G36U U43A: the self-cleavage was 0.04.

With G5U G40U C46A, the self-cleavage is 0.04.

With G5U C8G G17A, the self-cleavage was found to be 0.14.

On to G5U C8G C15A, for which the self-cleavage turned out to be 0.01.

Turning to G5U G17C G36A, the self-cleavage is 0.05.

On to G5U C10G A26G C37A, for which the self-cleavage is 0.01.

As for G5U G29U C42A, the self-cleavage was 0.26.

As to G5U G19U G44C, the self-cleavage was 0.05.

On to G5U G7A C13U G17C G21U A25C, for which the self-cleavage stood at 0.17.

Take G5U C18U G33U: the self-cleavage is 0.03.

G5U C10A C13U G22U: the self-cleavage was found to be 0.05.

Consider G5U C10A G17U A26U G33U G40U C45U, for which the self-cleavage was found to be 0.01.

In the case of G5U U9G G35C U38C G40U, the self-cleavage turned out to be 0.03.

Turning to G5U G7U A11C, the self-cleavage came to 0.02.

Consider G5U G7U A11U, for which the self-cleavage stood at 0.01.

Take G5U C31A G33A C46A: the self-cleavage was 0.05.

As for G5U G7U G27A, the self-cleavage worked out at 0.08.

Consider G5U C13U U20G G29U C37A, for which the self-cleavage turned out to be 0.05.

For G5U C8A G44C C45G, the self-cleavage stood at 0.15.

For the variant G5U C10A G30A, the self-cleavage turned out to be 0.02.

Take G5U G19A A41U: the self-cleavage was determined as 0.33.

Turning to G5U G21U A25U, the self-cleavage was 0.04.

Consider G5U C13U G22A G27A G36U A39C C42A, for which the self-cleavage stood at 0.03.

As to G5U G21A C46G, the self-cleavage amounted to 0.12.

In the case of G5U C10A C15A A26U G29C A39G, the self-cleavage is 0.02.

As for G5U C18U G19A G27A, the self-cleavage came out at 0.1.

G5U C10A C15G: the self-cleavage was determined as 0.02.

In the case of G5U G21U U28C, the self-cleavage is 0.07.

Take G5U G7U U28G G35U A39G: the self-cleavage came out at 0.

For G5U G17A G44A, the self-cleavage was found to be 0.02.

Turning to G5U G21U A39U, the self-cleavage was 0.06.

As to G5U C8U C10U G19U G30C C46A, the self-cleavage was 0.04.

Turning to G5U G19U C23G U32G, the self-cleavage stood at 0.19.

For the variant G5U G17A G27A C37G, the self-cleavage is 0.88.

As to G5U G17C U20A, the self-cleavage was found to be 0.02.

For G5U C8A A26U G29U, the self-cleavage was 0.25.

As to G5U G7A G29C, the self-cleavage amounted to 0.12.

G5U G29U C46U: the self-cleavage is 0.06.

Consider G5U G22A A39U, for which the self-cleavage turned out to be 0.

For G5U G17A G21A G30A U32C G36A U38G A41U, the self-cleavage was found to be 0.01.

On to G5U G17C G19A G22U, for which the self-cleavage came out at 0.03.

For the variant G5U C8A G21U U38C G44U, the self-cleavage was found to be 0.27.

With G5U C8G C13A U20C C37U, the self-cleavage is 0.05.

For G5U U9A G17C U34G, the self-cleavage was 0.

Consider G5U G7C U9A C15G A16C G33C U38A, for which the self-cleavage worked out at 0.07.

G5U G36A C45G: the self-cleavage came to 0.08.

For the variant G5U G7C C13U, the self-cleavage was determined as 0.37.

Turning to G5U C13A C42U, the self-cleavage amounted to 0.02.

With G5U C31U C42U G44A, the self-cleavage came to 0.02.

Consider G5U G17A C37A U38G, for which the self-cleavage worked out at 0.02.

Regarding G5U C37G C46A, the self-cleavage was found to be 0.1.

Take G5U G7U C8G G44A: the self-cleavage came to 0.1.

With G5U G7U U9A U38C, the self-cleavage was determined as 0.18.

Regarding G5U C13U G21U, the self-cleavage was found to be 0.15.

As to G5U G22A C46A, the self-cleavage was 0.02.

Regarding G5U G19C G33C A39U, the self-cleavage turned out to be 0.02.

In the case of G5U G17C C23G U32A, the self-cleavage came out at 0.02.

Take G5U C15G G17A G22U G30U C31U: the self-cleavage came out at 0.02.

G5U C10U A11C G29A C31G G33C: the self-cleavage came to 0.02.

On to G5U G7C A26U G27U, for which the self-cleavage was 0.01.

In the case of G5U G40A C45A, the self-cleavage worked out at 0.01.

Consider G5U G19A G35C C46G, for which the self-cleavage worked out at 0.04.

As for G5U C23G G35U C37A, the self-cleavage was 0.05.

Consider G5U C18G G29U, for which the self-cleavage was 0.13.

On to G5U C8A G36A C46U, for which the self-cleavage amounted to 0.67.

Consider G5U C8A C31U U32G G35U, for which the self-cleavage worked out at 0.02.

On to G5U U20A C42G, for which the self-cleavage came to 0.04.

In the case of G5U C15A G36U G44U, the self-cleavage worked out at 0.05.

Regarding G5U G33C A39G, the self-cleavage stood at 0.02.

On to G5U G17A A25C G40C A41U, for which the self-cleavage was found to be 0.03.

For G5U C8U G21U, the self-cleavage worked out at 0.08.

Regarding G5U C13G A24C G29U, the self-cleavage was found to be 0.01.

In the case of G5U G22A U28A A39U G44U, the self-cleavage was 0.05.

Take G5U C8A C18U: the self-cleavage came out at 0.07.

Consider G5U C31G U38G G40U, for which the self-cleavage turned out to be 0.01.

On to G5U G27U U34G C42G, for which the self-cleavage was 0.03.

On to G5U G7C C13U U20C C23G G35C, for which the self-cleavage was 0.14.

G5U G22A U34C: the self-cleavage is 0.18.

As for G5U U9C A14C, the self-cleavage was determined as 0.01.

For the variant G5U C10G A24U, the self-cleavage was found to be 0.04.

As to G5U G21A G22C G27C C37G, the self-cleavage worked out at 0.02.

For G5U G7U A12G G19A C46A, the self-cleavage was 0.01.

For G5U G17U C31G, the self-cleavage is 0.07.

On to G5U C13A A16C C23A C42A, for which the self-cleavage worked out at 0.02.

As to G5U G22C U28A G40A, the self-cleavage came to 0.04.

For the variant G5U C8G C23A U32C C37U G44U, the self-cleavage is 0.01.

Regarding G5U C10A A14C, the self-cleavage came out at 0.03.

G5U G19C U28C: the self-cleavage was 0.06.

Turning to G5U G7C C13G A16U A39U, the self-cleavage worked out at 0.05.

With G5U C23U G27C, the self-cleavage is 0.07.

As for G5U G27C C46A, the self-cleavage is 0.11.

Turning to G5U C10U C37A C42A, the self-cleavage was 0.

As to G5U G17A G19U U20C G29C G36U C42A C45A, the self-cleavage is 0.02.

Turning to G5U C18A G27A G29U C31U, the self-cleavage was 0.07.

On to G5U G21U G35U, for which the self-cleavage was 0.04.

For the variant G5U G17A G33C G40U, the self-cleavage amounted to 0.01.

Take G5U C13A C15A C18U C37U C42U: the self-cleavage turned out to be 0.02.

Regarding G5U G7C G22U G35U, the self-cleavage is 0.14.

As to G5U C10A C13U U32A, the self-cleavage turned out to be 0.01.

For the variant G5U G36A G40C, the self-cleavage is 0.03.

Turning to G5U C8A G30A, the self-cleavage worked out at 0.33.

On to G5U C13U U38A A39C, for which the self-cleavage is 0.

Consider G5U C10A A12U G27U G30A C45U, for which the self-cleavage came to 0.06.

Take G5U U9G A14C G27U C31A G35A: the self-cleavage turned out to be 0.01.

For the variant G5U G19U G35A, the self-cleavage came out at 0.1.

As for G5U G17A U20A G40U C42U, the self-cleavage amounted to 0.

As to G5U G27C C31A, the self-cleavage stood at 0.02.

With G5U G21C U34A G40A, the self-cleavage is 0.04.

Take G5U G19A C45U: the self-cleavage was found to be 0.13.

In the case of G5U G7C C10A C13U, the self-cleavage was 0.05.

Regarding G5U C10G U20G G21C G22A U28G C46U, the self-cleavage is 0.02.

As for G5U G7C C31G G35C, the self-cleavage came out at 0.06.

With G5U U9A G21U G40U, the self-cleavage amounted to 0.05.

With G5U C10U C15A G21C A25C G36A C37U, the self-cleavage is 0.02.

For the variant G5U G7U A11G G40C, the self-cleavage was 0.

In the case of G5U G29A G30C U34A C45U, the self-cleavage turned out to be 0.02.

Regarding G5U G7U A14U C45A, the self-cleavage amounted to 0.33.

In the case of G5U C8U U9C, the self-cleavage stood at 0.06.

As for G5U C13U A16C A24G C46U, the self-cleavage was determined as 0.01.

Turning to G5U G7A C13A G30U, the self-cleavage is 0.29.

G5U G36A U38A A39C A41G: the self-cleavage was 0.04.

Turning to G5U G29A C31U U34A A41G U43C, the self-cleavage is 0.

As to G5U G29C U43C C46G, the self-cleavage came out at 0.03.

For G5U G17C G29U C31G, the self-cleavage stood at 0.01.

Turning to G5U G17U G19A G21C, the self-cleavage worked out at 0.

For the variant G5U C8G A12G G27U G29U U43C, the self-cleavage was 0.02.

Consider G5U C13U C15U, for which the self-cleavage came out at 0.17.

Turning to G5U G30A G33U, the self-cleavage came to 0.04.

For G5U C15A U28A, the self-cleavage was 0.04.

Turning to G5U C23A G29C C31A C37G G40U C45U, the self-cleavage was 0.02.

Regarding G5U G33A C46U, the self-cleavage came out at 0.01.

For the variant G5U C8A C10U G36C, the self-cleavage was 0.05.

Consider G5U G19C A26G, for which the self-cleavage is 0.04.

As to G5U C10U G19C U28G G30A, the self-cleavage amounted to 0.02.

As for G5U C23A A24G G29U, the self-cleavage was found to be 0.01.

For the variant G5U G22A U28A C42U, the self-cleavage stood at 0.03.

For G5U C10A C15A A16U G17U A24C, the self-cleavage stood at 0.01.

As to G5U G30C G36U C37U U38A, the self-cleavage is 0.03.

As to G5U C23A U34C C45A, the self-cleavage stood at 0.12.

In the case of G5U C8U C15A C23G A24G G27A G35C, the self-cleavage amounted to 0.25.

Take G5U G7U G29C: the self-cleavage amounted to 0.04.

As for G5U C10A G27A U28G G33U, the self-cleavage was 0.01.

G5U G7A C13G G36A C46G: the self-cleavage turned out to be 0.51.

Take G5U C10A G17A G30U G36C C45G: the self-cleavage was determined as 0.

Consider G5U C18G U32C C45G, for which the self-cleavage was 0.

In the case of G5U G21A C23G U28G, the self-cleavage was determined as 0.

G5U G30U A39G: the self-cleavage was 0.1.

Regarding G5U G7U A39C G44U C46A, the self-cleavage is 0.08.

In the case of G5U C42U C45U, the self-cleavage is 0.05.

In the case of G5U C15U G21A G40U, the self-cleavage was found to be 0.22.

On to G5U U9C C18G G27A, for which the self-cleavage is 0.07.

With G5U U9G G44U, the self-cleavage stood at 0.02.

For the variant G5U C23A A25C, the self-cleavage amounted to 0.04.

For the variant G5U G19C A26C G29U, the self-cleavage worked out at 0.01.
